Source: publication PMC5836133
The other results are listed elsewhere or left out. At the low end of the ranking, values are background and their order means little.
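Also: rank-based score ranging −0.5 to +0.5 with E above 0.45 taken as significant binding.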

Each sequence was assayed on T1, GST-NbGlk1(82-244) (assay: protein-binding microarray). Conditions: NbGlk1 is a Golden2-like transcription factor of Nicotiana benthamiana; high values mean tight binding; most listed sequences are background and not binding sites; double strand, one strand shown.
T1 sequence: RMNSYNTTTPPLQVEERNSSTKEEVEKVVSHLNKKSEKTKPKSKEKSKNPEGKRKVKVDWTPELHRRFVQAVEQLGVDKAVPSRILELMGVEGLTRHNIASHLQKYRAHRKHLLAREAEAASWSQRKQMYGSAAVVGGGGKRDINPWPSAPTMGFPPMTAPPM
Sequence ATGCCATA has a binding signal of -0.038 E-score.
AAAGTATG gave a binding signal of -0.0621 E-score.
For AAGTTATA, the binding signal was 0.0726 E-score.
Sequence ATTCGCCC has a binding signal of 0.275 E-score.
AATTGGAC showed a binding signal of 0.0307 E-score.
Sequence ACCGAGAC has a binding signal of -0.137 E-score.
In the case of ATCATACC, the binding signal is reported as 0.0944 E-score.
AAGGAGAG was tested, and the binding signal was -0.206 E-score.
With AGGCCGTA the binding signal was -0.277 E-score.
Work on AAAACGAC yielded a binding signal of -0.0694 E-score.
ACATCGTA was tested, and the binding signal was 0.0233 E-score.
AAAGTAAT gave a binding signal of 0.215 E-score.
ATAATTAT was tested, and the binding signal was 0.164 E-score.
Sequence ATTGTACG has a binding signal of 0.138 E-score.
AGACTCAG showed a binding signal of -0.17 E-score.
Work on AAACAGTG yielded a binding signal of -0.146 E-score.
AACAGATG gave a binding signal of -0.0902 E-score.
ATCAGTGA showed a binding signal of 0.218 E-score.
With CACCTCCC the binding signal was -0.157 E-score.
In the case of CAGCCGCC, the binding signal is reported as -0.195 E-score.
Work on AAAATCGA yielded a binding signal of 0.381 E-score.
For AGCTTGGC, the binding signal was -0.247 E-score.
AAGCATGA gave a binding signal of -0.111 E-score.
In the case of CAAGTTCC, the binding signal is reported as -0.194 E-score.
AGATAATG showed a binding signal of 0.183 E-score.
Sequence ATAATTCC has a binding signal of 0.153 E-score.
In the case of AATTATTA, the binding signal is reported as 0.153 E-score.
Sequence ACACCGTA has a binding signal of 0.00495 E-score.
Sequence ACGCTAGT has a binding signal of -0.205 E-score.
CAATTCCA gave a binding signal of 0.0894 E-score.
CAGCCACC was tested, and the binding signal was -0.15 E-score.
ATATGGGC showed a binding signal of 0.0983 E-score.
AGTAGCGG gave a binding signal of -0.134 E-score.
Work on ACGAAGAA yielded a binding signal of 0.026 E-score.
Sequence CAAGGCTG has a binding signal of -0.272 E-score.
With AAACGAAG the binding signal was -0.0522 E-score.
AGAATATA was tested, and the binding signal was 0.267 E-score.
Work on AAAGACAT yielded a binding signal of -0.0244 E-score.
AACTTGCA was tested, and the binding signal was -0.00542 E-score.
With AACTCACC the binding signal was -0.217 E-score.
In the case of ACCCCCGT, the binding signal is reported as -0.279 E-score.
In the case of ATAATCCA, the binding signal is reported as 0.354 E-score.
In the case of ATTGGTGA, the binding signal is reported as 0.0654 E-score.
ACGCCTAC gave a binding signal of -0.258 E-score.
With AGGCCTGC the binding signal was -0.302 E-score.
ATACGCAG was tested, and the binding signal was 0.163 E-score.
Sequence ACTGGCGG has a binding signal of -0.0825 E-score.
For ACTCTATC, the binding signal was -0.102 E-score.
For AGGTCTTC, the binding signal was -0.29 E-score.
For AGCCATCA, the binding signal was -0.0735 E-score.
In the case of ACGAGTTG, the binding signal is reported as -0.12 E-score.
For AACCGTCC, the binding signal was -0.096 E-score.
AGAGTGTG was tested, and the binding signal was 0.0233 E-score.
AGCCCCTG was tested, and the binding signal was -0.237 E-score.
With AGGAGAAT the binding signal was 0.267 E-score.
AAAGCAGG gave a binding signal of -0.119 E-score.
AGGCAGTC showed a binding signal of -0.276 E-score.
AGGAGCTC gave a binding signal of -0.293 E-score.
In the case of CAACCCGC, the binding signal is reported as -0.0505 E-score.
AGTATACT was tested, and the binding signal was 0.133 E-score.
For ATCGCAAC, the binding signal was 0.187 E-score.
Sequence ATGCTCGG has a binding signal of -0.193 E-score.
For AACAAACC, the binding signal was -0.0276 E-score.
Work on ACCAACCC yielded a binding signal of -0.312 E-score.
ACGCTCAT showed a binding signal of -0.125 E-score.
In the case of ACGCCCCG, the binding signal is reported as -0.279 E-score.
CACGCCCA showed a binding signal of -0.281 E-score.
With AAAATCTC the binding signal was 0.453 E-score.
AACAAGAC was tested, and the binding signal was -0.128 E-score.
AGTAGCAG gave a binding signal of -0.108 E-score.
AGCGGGGC showed a binding signal of -0.25 E-score.
Sequence CAATAGAA has a binding signal of 0.0372 E-score.
ACTTCTAT gave a binding signal of -0.0208 E-score.
AGCCTTAC gave a binding signal of -0.0438 E-score.
Work on AACCCCAT yielded a binding signal of -0.155 E-score.
Work on ACGCGGGC yielded a binding signal of -0.213 E-score.
Sequence ATATCATA has a binding signal of 0.307 E-score.
Work on ATATATCA yielded a binding signal of 0.276 E-score.
ACACGTGT gave a binding signal of -0.0426 E-score.
ACCCGTTC gave a binding signal of -0.151 E-score.
With AAATGGCG the binding signal was -0.0153 E-score.
Sequence ATATCAAA has a binding signal of 0.228 E-score.
AATAATCA showed a binding signal of 0.184 E-score.
Sequence ATTCTTAC has a binding signal of 0.198 E-score.
CACAGATG was tested, and the binding signal was -0.0732 E-score.
In the case of ACACGGAG, the binding signal is reported as -0.17 E-score.
